Source: patent US20050203135A1, “Antagonists for treatment of CD/11CD18 adhesion receptor mediated disorders” (Genentech, Inc., priority 1998, published 2005)
Like-named read-outs stand apart in the source and are kept apart here.

Tests used:
[1] = target: T1, CD11a/CD18-ICAM-1 interaction (recombinant human LFA-1 / human 5 domain ICAM-Ig) (Homo sapiens, UniProt P05107+P20701); test: Forward format LFA-1:ICAM-1 assay (PPFF), protein/protein receptor binding; design: containing the full-length cDNAs for the aL (CD11a) and b2 (CD18) subunits; made in house; conditions: forward format of LFA/ICAM assay
Source text: Forward Format LFA-1:ICAM-1 Assay (PPFF):

[2] = target: T1, CD11a/CD18-ICAM-1 interaction (recombinant human LFA-1 / human 5 domain ICAM-Ig); conditions: PLM2(μM)
[3] = PLM2 antibody capture format of LFA/ICAM assay

Row | SMILES | IC50 [1] [nM] | IC50 [2, 3] [µM] | IC50 [2] [µM]
1 | C[C@@H](O)[C@H](NC(=O)c1ccc(C(=O)NCc2cccc(O)c2)cc1Cl)C(=O)O [Example 341] | 31 | – | –
2 | C[C@H](NC(=O)c1ccc(C(=O)CCc2cccc(O)c2)cc1Cl)C(=O)O [Example 387] | 98 | 0.043 | –
3 | Cc1cc(CNC(=O)c2cccc(O)c2)cc(C)c1C(=O)N[C@@H](CC(N)=O)C(=O)O [Example 285] | 64 | – | –
4 | CC(C)CCNC(=O)CC[C@H](NC(=O)c1ccc(C(=O)NCc2cccc(O)c2)cc1Cl)C(=O)O [Example 437] | 83 | 0.034 | –
5 | CC(NC(=O)c1ccc(C(=O)N[C@@H](Cc2c[nH]c3ccccc23)C(=O)O)c(Cl)c1)c1cccc(O)c1 (stereo partly shown) [Example 364] | 87 | 0.035 | –
6 | O=C(NCc1cccc(O)c1)c1ccc(C(=O)N[C@@H](COCc2ccccc2)C(=O)O)c(Cl)c1 [Example 344] | 183 | 0.053 | –
7 | NC(=O)C[C@H](NC(=O)c1c(Cl)cc(OCC(O)c2cccc(O)c2)cc1Cl)C(=O)O (stereo partly shown) [Example 389] | 54 | 0.01 | –
8 | NCCCC[C@H](NC(=O)c1ccc(C(=O)NCc2cccc(O)c2)cc1Cl)C(=O)O [Example 346] | 71 | – | –
9 | C[C@H](NC(=O)c1ccc(C(O)CCc2cccc(O)c2)cc1Cl)C(=O)O (stereo partly shown) [Example 386] | 30 | – | –
10 | NC(=O)C[C@H](NC(=O)c1ccc(OCC(O)c2cccc(O)c2)cc1Cl)C(=O)O (stereo partly shown) [Example 384] | 46 | 0.018 | –
11 | O=C(NCc1cccc(O)c1)c1ccc(C(=O)N[C@@H](Cc2c[nH]c3ccccc23)C(=O)O)c(Cl)c1 [Example 342] | 57 | 0.004 | –
12 | C[C@H](NC(=O)c1ccc(C(=O)NCc2cccc(F)c2)cc1Br)C(=O)O [Example 310] | 82 | – | –
13 | C[C@H](NC(=O)c1ccc(C(=O)NCc2cccc(O)c2)cc1Cl)C(=O)O [Example 340] | 14 | 0.006 | –
14 | O=C(NCc1cc(F)c(C(=O)N[C@@H](Cc2c[nH]c3ccccc23)C(=O)O)c(F)c1)c1cccc(O)c1 [Example 283] | 92 | – | –
15 | O=C(NCc1cccc(O)c1)Nc1ccc(C(=O)N[C@@H](Cc2c[nH]c3ccccc23)C(=O)O)c(Cl)c1 [Example 358] | 230 | 0.032 | –
16 | C[C@H](NC(=O)c1ccc(OCCOc2cccc(O)c2)cc1Cl)C(=O)O [Example 388] | 50 | – | –
17 | C[C@@H](O)[C@H](NC(=O)c1ccc(NC(=O)Cc2cccc(O)c2)cc1Cl)C(=O)O [Example 256] | 76 | – | –
18 | C[C@H](NC(=O)c1ccc(OCC(O)c2cccc(O)c2)cc1Cl)C(=O)O (stereo partly shown) [Example 385] | 70 | 0.048 | –
19 | C=CCOC(=O)NC[C@H](NC(=O)c1ccc(C(=O)NCc2cccc(O)c2)cc1Cl)C(=O)O [Example 350] | 27 | 0.005 | –
20 | NCCCC[C@H](NC(=O)c1c(Cl)cc(CCC(O)c2cccc(Cl)c2)cc1Cl)C(=O)O (stereo partly shown) [Example 406] | – | 0.022 | –

Row | SMILES | IC50 [1] [nM] | IC50 [2, 3] [µM] | IC50 [2] [µM]
21 | CC(=O)NCc1ccc(C(=O)NCC[C@H](NC(=O)c2ccc(C(=O)NCc3cccc(O)c3)cc2Cl)C(=O)O)cc1 [Example 204] | – | 0.025 | –
22 | NC(=O)C[C@H](NC(=O)c1c(Cl)cc(OCCOc2cccc(O)c2)cc1Cl)C(=O)O [Example 391] | – | 0.007 | –
23 | C[C@H](NC(=O)c1ccc(NC(=O)[C@H](CCC(N)=O)NC(=O)c2ccccc2)cc1Cl)C(=O)O [Example 262] | – | 0.075 | –
24 | CCCC(=O)N1CCC(C(=O)NCCC[C@H](NC(=O)c2ccc(C(=O)NCc3cccc(O)c3)cc2Cl)C(=O)O)CC1 [Example 169] | – | 0.006 | –
25 | Cc1cc(C(=O)NCc2cccc(O)c2)cc(C)c1C(=O)N[C@@H](CNC(=O)c1ccco1)C(=O)O [Example 306] | – | 0.004 | –
26 | C[C@H](NC(=O)c1ccc(NC(=O)Cc2cccc(O)c2)cc1Cl)C(=O)O [Example 255] | 42 | – | –
27 | NC(=O)C[C@H](NC(=O)c1ccc(C(=O)NCc2cccc(Cl)c2)cc1Cl)C(=O)O [Example 357] | 57 | 0.023 | –
28 | CCCOC(=O)NCCCC[C@H](NC(=O)c1ccc(C(=O)NCc2cccc(O)c2)cc1Cl)C(=O)O [Example 335] | – | 0.096 | –
29 | O=C(NCc1cccc(O)c1)c1ccc(C(=O)N[C@@H](Cc2c[nH]cn2)C(=O)O)c(Cl)c1 [Example 347] | 44 | 0.004 | –
30 | Cc1cc(CNC(=O)/C=C/c2ccco2)cc(C)c1C(=O)N[C@@H](CNC(=O)c1ccco1)C(=O)O [Example 290] | – | 0.009 | –
31 | CCOC(=O)NCC[C@H](NC(=O)c1ccc(C(=O)NCc2cccc(O)c2)cc1Cl)C(=O)O [Example 326] | – | 0.042 | –
32 | C=CCOC(=O)NCC[C@H](NC(=O)c1ccc(C(=O)NCc2cccc(O)c2)cc1Cl)C(=O)O [Example 324] | – | 0.042 | –
33 | CC(=O)N1CCCC(C(=O)NCC[C@H](NC(=O)c2ccc(C(=O)NCc3cccc(O)c3)cc2Cl)C(=O)O)C1 (stereo partly shown) [Example 191] | – | 0.016 | –
34 | NC(=O)CC[C@H](NC(=O)c1ccc(C(=O)NCc2cccc(O)c2)cc1Cl)C(=O)O [Example 349] | 42 | – | –
35 | CCCC(NC(=O)c1ccc(C(=O)N[C@@H](Cc2c[nH]c3ccccc23)C(=O)O)c(Cl)c1)c1cccc(O)c1 (stereo partly shown) [Example 368] | – | 0.043 | –
36 | O=C(NCc1cccc(Cl)c1)c1ccc(C(=O)N[C@@H](Cc2c[nH]cn2)C(=O)O)c(Cl)c1 [Example 356] | 68 | – | –
37 | COC(CCc1cccc(O)c1)c1cc(Cl)c(C(=O)N[C@@H](CC(N)=O)C(=O)O)c(Cl)c1 (stereo partly shown) [Example 398] | – | 0.015 | –
38 | CCC(=O)N1CCCC(C(=O)NCCCC[C@H](NC(=O)c2ccc(C(=O)NCc3cccc(O)c3)cc2Cl)C(=O)O)C1 (stereo partly shown) [Example 214] | – | 0.028 | –
39 | O=C(NCc1cc(Cl)c(C(=O)N[C@@H](CNC(=O)c2cccs2)C(=O)O)c(Cl)c1)c1ccc2cc[nH]c2c1 [Example 307] | – | 0.004 | –
40 | NC(=O)C[C@H](NC(=O)c1c(Cl)cc(OCCCOc2cccc(O)c2)cc1Cl)C(=O)O [Example 390] | – | 0.079 | –

Row | SMILES | IC50 [1] [nM] | IC50 [2, 3] [µM] | IC50 [2] [µM]
41 | CCC(=O)NCc1cccc(C(=O)NCCCC[C@H](NC(=O)c2ccc(C(=O)NCc3cccc(O)c3)cc2Cl)C(=O)O)c1 [Example 224] | – | 0.026 | –
42 | CC(Cc1ccco1)C(=O)NCc1cc(Cl)c(C(=O)N[C@@H](CNC(=O)c2cccs2)C(=O)O)c(Cl)c1 (stereo partly shown) [Example 302] | – | 0.023 | –
43 | CCOC(=O)NC[C@H](NC(=O)c1ccc(C(=O)NCc2cccc(O)c2)cc1Cl)C(=O)O [Example 235] | – | 0.002 | –
44 | COC(=O)NCCCC[C@H](NC(=O)c1ccc(C(=O)NCc2cccc(O)c2)cc1Cl)C(=O)O [Example 337] | – | 0.079 | –
45 | O=C(NCc1cccc(O)c1)c1ccc(C(=O)NC(Cc2c[nH]c3ccccc23)C(=O)O)c2sccc12 (stereo not shown) [Example 380] | – | 0.096 | –
46 | Cc1cc(C(O)CCc2cccc(O)c2)cc(C)c1C(=O)N[C@@H](CC(N)=O)C(=O)O (stereo partly shown) [Example 395] | – | 0.006 | –
47 | O=C(NC[C@H](NC(=O)c1c(Cl)cc(CCC(O)c2cccc(Cl)c2)cc1Cl)C(=O)O)c1cccs1 (stereo partly shown) [Example 404] | – | 0.002 | –
48 | C/C(=C\C(=O)NCc1cc(Cl)c(C(=O)N[C@@H](CNC(=O)c2cccs2)C(=O)O)c(Cl)c1)c1ccco1 [Example 299] | – | 0.016 | –
49 | NCCCC[C@H](NC(=O)c1c(Cl)cc(C(O)CCc2cccc(O)c2)cc1Cl)C(=O)O (stereo partly shown) [Example 400] | – | 0.007 | –
50 | CCC(NC(=O)c1ccc(C(=O)N[C@@H](Cc2c[nH]c3ccccc23)C(=O)O)c(Cl)c1)c1cccc(O)c1 (stereo partly shown) [Example 366] | – | – | 0.062
51 | C[C@H](NC(=O)c1ccc(C(=O)NCC#Cc2cccc(O)c2)cc1Br)C(=O)O [Example 312] | – | 0.089 | –
52 | CCCC(=O)NCC(=O)NCCC[C@H](NC(=O)c1ccc(C(=O)NCc2cccc(O)c2)cc1Cl)C(=O)O [Example 186] | – | 0.015 | –
53 | CC(=O)NCc1cccc(C(=O)NCCC[C@H](NC(=O)c2ccc(C(=O)NCc3cccc(O)c3)cc2Cl)C(=O)O)c1 [Example 175] | – | 0.005 | –
54 | COC(=O)NC[C@H](NC(=O)c1ccc(C(=O)NCc2cccc(O)c2)cc1Cl)C(=O)O [Example 234] | – | 0.044 | –
55 | CC(=O)NCc1ccc(C(=O)NCCC[C@H](NC(=O)c2ccc(C(=O)NCc3cccc(O)c3)cc2Cl)C(=O)O)cc1 [Example 179] | – | 0.009 | –
56 | CCCC(=O)NCc1ccc(C(=O)NCC[C@H](NC(=O)c2ccc(C(=O)NCc3cccc(O)c3)cc2Cl)C(=O)O)cc1 [Example 203] | – | 0.037 | –
57 | CC(=O)NCCC(=O)NCCCC[C@H](NC(=O)c1ccc(C(=O)NCc2cccc(O)c2)cc1Cl)C(=O)O [Example 228] | – | 0.018 | –
58 | CC(NC(=O)c1ccccc1)c1ccc(C(=O)NC(CC(N)=O)C(=O)O)c(Cl)c1 (stereo not shown) [Example 375] | – | 0.04 | –
59 | CC(=O)N1CCC(C(=O)NCCC[C@H](NC(=O)c2ccc(C(=O)NCc3cccc(O)c3)cc2Cl)C(=O)O)CC1 [Example 170] | – | 0.007 | –
60 | NC(=O)C[C@H](NC(=O)c1c(Cl)cc(C(O)CCc2cccc(O)c2)cc1Cl)C(=O)O (stereo partly shown) [Example 397] | – | 0.005 | –
